# The supplement of paper PMC7125110
# ± gives the standard error. Variants at the background level are over-represented here.
# B1: glmS ribozyme (parent)
# chain: AUAAAAGCGCCAGAACUACAGAAAUGUAGUUGACGAGGAGGAGGUUUAUCGAAUUUUCGGCGGAUGCCUCCAAA
# What was measured:
# Settings in all cases: with glucosamine-6-phosphate
# [1] = variants of: B1; assay: self-cleavage kobs at 640 uM GlcN6P; higher = faster cleavage; RNA array
# How it was run: (§1)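 In situ transcription by E. coli RNA polymerase produced barcoded ribozyme variants on sequenced MiSeq chips, and a hybridised Cy3 probe tracked them at 37 °C. Glucosamine-6-phosphate was flowed in at 40 μM to 10 mM in HEPES/KCl/Mg(OAc)2 buffer. kcat and KM were taken from weighted Michaelis–Menten fits of kobs values from exponential decay fits.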
# [2] = variants of: B1; assay: self-cleavage kobs at 2500 uM GlcN6P; higher = faster cleavage; RNA array
# How it was run: as §1
# [3] = variants of: B1; assay: self-cleavage kobs at 160 uM GlcN6P; higher = faster cleavage; RNA array
# How it was run: as §1
# [4] = variants of: B1; assay: self-cleavage kobs at 10000 uM GlcN6P; higher = faster cleavage; RNA array
# How it was run: as §1
Variant,self-cleavage kobs at 640 uM GlcN6P [1],self-cleavage kobs at 2500 uM GlcN6P [2],self-cleavage kobs at 160 uM GlcN6P [3],self-cleavage kobs at 10000 uM GlcN6P [4]
G38C U45A C71A,< 1e-05 s⁻¹,,,
G38C U45C C70A,< 1e-05 s⁻¹,< 1e-05 s⁻¹,,
G38C U46A,< 1e-05 s⁻¹,< 1e-05 s⁻¹,< 1e-05 s⁻¹,
G38C U47A G63C,< 1e-05 s⁻¹,,,
G38C U47C C58U A64C C67G,< 1e-05 s⁻¹,< 1e-05 s⁻¹,,
G38C U47G,< 1e-05 s⁻¹,< 1e-05 s⁻¹,< 1e-05 s⁻¹,
G38C U49C,< 1e-05 s⁻¹,< 1e-05 s⁻¹,,
G38C U49G G59U U65G,< 1e-05 s⁻¹,,,
G38C U54A,< 1e-05 s⁻¹,< 1e-05 s⁻¹,,
G38C U55A G59U,< 1e-05 s⁻¹,< 1e-05 s⁻¹,,
G38U A39U,< 1e-05 s⁻¹,,< 1e-05 s⁻¹,
G38U A42C G62A,< 1e-05 s⁻¹,,,
G38U A42U U56G,< 1e-05 s⁻¹,,< 1e-05 s⁻¹,< 1e-05 s⁻¹
G38U A52C A53C C68A C71U,0.000617 ± 0.00024 s⁻¹,,,
G38U C50A C61U,< 1e-05 s⁻¹,,,
G38U G41U U57A C68A,< 1e-05 s⁻¹,< 1e-05 s⁻¹,,< 1e-05 s⁻¹
G38U G44U G51C,< 1e-05 s⁻¹,< 1e-05 s⁻¹,,
G38U G51U G60C,< 1e-05 s⁻¹,,< 1e-05 s⁻¹,< 1e-05 s⁻¹
G38U G60C,< 1e-05 s⁻¹,,< 1e-05 s⁻¹,
G38U G63C,< 1e-05 s⁻¹,< 1e-05 s⁻¹,,< 1e-05 s⁻¹

Variant,self-cleavage kobs at 640 uM GlcN6P [1],self-cleavage kobs at 2500 uM GlcN6P [2],self-cleavage kobs at 160 uM GlcN6P [3],self-cleavage kobs at 10000 uM GlcN6P [4]
G38U U46C U55C,< 1e-05 s⁻¹,,,
G38U U47C U49A C50U,< 1e-05 s⁻¹,,,
G38U U54A,< 1e-05 s⁻¹,< 1e-05 s⁻¹,< 1e-05 s⁻¹,
G38U U55C U56G,< 1e-05 s⁻¹,,,
G38U U65C,< 1e-05 s⁻¹,< 1e-05 s⁻¹,,
A39C A42C C67G C68A C70G,< 1e-05 s⁻¹,< 1e-05 s⁻¹,,
A39C A42U A64U,< 1e-05 s⁻¹,,,
A39C C61G C67A,< 1e-05 s⁻¹,,< 1e-05 s⁻¹,
A39C G43A,< 1e-05 s⁻¹,,< 1e-05 s⁻¹,
A39C G43C C50G G59U,< 1e-05 s⁻¹,< 1e-05 s⁻¹,,
A39C G43U G62C A64U C70U,< 1e-05 s⁻¹,< 1e-05 s⁻¹,,
A39C G44U G59C,< 1e-05 s⁻¹,< 1e-05 s⁻¹,,
A39C G59C C68U,< 1e-05 s⁻¹,,,
A39C G60U,< 1e-05 s⁻¹,,,< 1e-05 s⁻¹
A39C U45G U56G,7.85e-05 ± 2.3e-05 s⁻¹,,,
A39C U49C A52U,< 1e-05 s⁻¹,< 1e-05 s⁻¹,,
A39G A52C A53U C70G,< 1e-05 s⁻¹,,,< 1e-05 s⁻¹
A39G A64C U69G C71U,< 1e-05 s⁻¹,< 1e-05 s⁻¹,,
A39G G40C A48C,< 1e-05 s⁻¹,,,
A39G G44C A48C C71G,< 1e-05 s⁻¹,< 1e-05 s⁻¹,< 1e-05 s⁻¹,

Variant,self-cleavage kobs at 640 uM GlcN6P [1],self-cleavage kobs at 2500 uM GlcN6P [2],self-cleavage kobs at 160 uM GlcN6P [3],self-cleavage kobs at 10000 uM GlcN6P [4]
A39G G51C C71U,< 1e-05 s⁻¹,,,< 1e-05 s⁻¹
A39G G51U G63U,< 1e-05 s⁻¹,< 1e-05 s⁻¹,,
A39G G60C,< 1e-05 s⁻¹,,< 1e-05 s⁻¹,
A39U A42C,9.53e-05 ± 1.1e-05 s⁻¹,0.000273 ± 3.6e-05 s⁻¹,2.58e-05 ± 7.6e-06 s⁻¹,0.000419 ± 3.9e-05 s⁻¹
A39U C61G C67G,< 1e-05 s⁻¹,< 1e-05 s⁻¹,,
A39U G40U G60C C70A,< 1e-05 s⁻¹,,< 1e-05 s⁻¹,
A39U G41A,0.00014 ± 1.5e-05 s⁻¹,0.00025 ± 2.7e-05 s⁻¹,5.88e-05 ± 1.3e-05 s⁻¹,0.000257 ± 3e-05 s⁻¹
A39U U46G A48U G63U,< 1e-05 s⁻¹,,,
A39U U49C,< 1e-05 s⁻¹,,< 1e-05 s⁻¹,< 1e-05 s⁻¹
A39U U49G,0.000168 ± 5.1e-05 s⁻¹,,,
A39U U54C G62C,< 1e-05 s⁻¹,< 1e-05 s⁻¹,< 1e-05 s⁻¹,
G40A A42G G51U U57A U69C,< 1e-05 s⁻¹,,,
G40A G44A U56G C71G,< 1e-05 s⁻¹,< 1e-05 s⁻¹,,
G40A U45C U56C U57A,< 1e-05 s⁻¹,< 1e-05 s⁻¹,< 1e-05 s⁻¹,
G40A U54G A64U,< 1e-05 s⁻¹,,,
G40A U57C C58A C61U,< 1e-05 s⁻¹,,,
G40C A42G C58A,< 1e-05 s⁻¹,,< 1e-05 s⁻¹,
G40C A48C U49A A53G,< 1e-05 s⁻¹,,< 1e-05 s⁻¹,
G40C A64U,< 1e-05 s⁻¹,,< 1e-05 s⁻¹,
